Experimental data: patent US20180148485A1 (Pieris, published 2018)

Tests used:
[1] = biological target: T1, recombinant human GPC3 (R&D Systems #2119-GP-050/CF) (human, UniProt P51654 25-559); assay: ELISA, GPC3 coated, anti-NGAL-HRP detection
T1 construct: also called Glypican-3; biotinylated human GPC3
Source text: GPC3 was coated on a microtiter plate and the tested molecules were titrated. […] The data was fitted with a 1:1 binding model with EC50 value and the maximum signal as free parameters, and a slope that was fixed to unity.

[2] = biological target: T2, recombinant human CD137-Fc fusion protein (#838-4B-100, R&D Systems) (human, UniProt Q07011 24-186); assay: ELISA, CD137-Fc coated, as described in Example 3
T2 construct: also called Fc-fusion of human CD137; not shown: Fc part of the bought fusion protein, not described
Source text: (§1) The data was fitted with a 1:1 binding model with EC50 value and the maximum signal as free parameters, and a slope that was fixed to unity.

[3] = biological target: T3, neonatal Fc receptor (FcRn, Sino Biologicals, #CT009-H08H) (UniProt P55899 in part; P61769 in part); assay: SPR, FcRn immobilised on CM5 chip, pH 6.0, steady state model
T3 construct: Covalently immobilised on a CM5 chip
T3 sequence (P55899 24-297 limits assumed, form in doubt, chain 1 of 2): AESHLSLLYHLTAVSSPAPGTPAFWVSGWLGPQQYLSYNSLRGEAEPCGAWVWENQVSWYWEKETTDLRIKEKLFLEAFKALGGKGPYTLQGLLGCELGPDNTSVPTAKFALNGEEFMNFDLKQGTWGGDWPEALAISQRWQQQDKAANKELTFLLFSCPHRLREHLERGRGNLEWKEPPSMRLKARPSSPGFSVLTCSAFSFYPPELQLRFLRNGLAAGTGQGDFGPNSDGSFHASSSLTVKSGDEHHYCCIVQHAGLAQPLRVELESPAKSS
T3 sequence (P61769 21-119 limits assumed, form in doubt, chain 2 of 2, further chain): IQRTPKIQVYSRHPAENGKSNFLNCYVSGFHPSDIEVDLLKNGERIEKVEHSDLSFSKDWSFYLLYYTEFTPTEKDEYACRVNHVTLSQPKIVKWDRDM

[4] = biological target: T2, recombinant human CD137-Fc fusion …; assay: SPR, biotinylated CD137-Fc captured on CAP chip, in analogy to Example 6
Protocol: Biotinlated CD137-Fc was immobilized on sensor chip and binding of the fusion polypeptides and lipocalin mutein was analyzed at different concentrations.

[5] = biological target: T1, recombinant human GPC3 (R&D Systems …); assay: SPR, biotinylated GPC3 captured on CAP chip, 1:1 model, apparent affinity
Protocol: Biotinlated GPC3 was immobilized on a sensor chip and binding of the fusion polypeptides and lipocalin mutein was analyzed at different concentrations.

[6] = biological target: T4, hFcγ RI/CD64 (R&D Systems) (human, UniProt P12314 16-288); assay: SPR, biotinylated fusion captured on CAP chip, receptor as analyte; Table 17 prints 'not determinable'
T4 construct: Soluble analyte in SPR; also called FcgRI
T4 sequence (P12314 16-288 limits assumed): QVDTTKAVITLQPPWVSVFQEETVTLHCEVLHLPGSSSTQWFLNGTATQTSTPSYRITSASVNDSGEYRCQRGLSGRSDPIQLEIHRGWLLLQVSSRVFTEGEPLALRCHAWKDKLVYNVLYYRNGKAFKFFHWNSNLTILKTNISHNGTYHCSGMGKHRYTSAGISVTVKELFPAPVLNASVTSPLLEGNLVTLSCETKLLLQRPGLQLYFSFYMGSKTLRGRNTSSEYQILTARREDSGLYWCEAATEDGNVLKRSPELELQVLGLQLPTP
Protocol: The excess of non-reacted biotin reagent was removed by loading the reaction mixture onto a Zeba™ Spin Desalting Plate (Thermo Scientific). The reference channel was loaded with Biotin CAPture Reagent only.
All measurements were performed at 25° C. […] Prior to the protein measurements three regeneration cycles were performed for conditioning purposes. Data were evaluated with Biacore T200 Evaluation software (V 2.0). Double referencing was used.

[7] = biological target: T2, recombinant human CD137-Fc fusion …; assay: dual-binding ELISA: CD137-Fc coated, fusion titrated, biotinylated GPC3 detected with Extravidin-HRP
Source text: as §1

T1 sequence (P51654 25-559 limits assumed): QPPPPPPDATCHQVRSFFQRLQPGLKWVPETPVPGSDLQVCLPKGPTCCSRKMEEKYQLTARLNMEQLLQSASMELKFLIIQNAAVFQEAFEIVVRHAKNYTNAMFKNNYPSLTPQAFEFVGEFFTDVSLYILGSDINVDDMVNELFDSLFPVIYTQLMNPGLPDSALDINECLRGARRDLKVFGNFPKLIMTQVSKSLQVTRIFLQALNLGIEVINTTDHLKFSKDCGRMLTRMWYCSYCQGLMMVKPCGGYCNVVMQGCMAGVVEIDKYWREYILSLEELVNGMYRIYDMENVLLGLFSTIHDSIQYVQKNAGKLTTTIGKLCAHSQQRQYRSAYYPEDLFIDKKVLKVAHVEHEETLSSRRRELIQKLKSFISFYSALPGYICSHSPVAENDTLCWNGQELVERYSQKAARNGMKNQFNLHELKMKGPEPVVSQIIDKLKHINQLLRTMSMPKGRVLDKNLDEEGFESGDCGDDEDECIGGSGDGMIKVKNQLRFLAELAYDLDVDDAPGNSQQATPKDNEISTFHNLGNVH

Binder	EC50 [1] [nM]	EC50 [2] [nM]	Kd [3] [nM]	Kd [4] [nM]	Kd [5] [nM]	binding result [6]	EC50 [7] [nM]
lipocalin mutein-Fc fusion polypeptide of SEQ ID NO: 44 (Fc fusion, Biotinylated for the Fc-gamma receptor SPR; also called IgG4Fc-lipocalin mutein fusion polypeptide) QDSTSDLIPAPPLSKVPLQQNFQDNQFQGKWYVVGRAGNVGLREDKDPPKMWATIYELKEDKSYDVTNVRFARKKCTYSIGTFVPGSQPGEFTLGQIKSEPGGTANLVRVVSTNYNQHAMVFFKEVYQNREIFFIILYGRTKELTSELKENFIRFSKSLGLPENHIVFPVPIDQCIDGGGGGSGGGGSGGGGS[letters of human IgG4 Fc with S228P F234A L235A (EU numbers) not shown]GGGGSGGGGSGGGGSQDSTSDLIPAPPLSKVPLQQNFQDNQFHGKWYVVGQAGNIRLREDKDPIKMMATIYELKEDKSYDVTMVKFDDKKCMYDIWTFVPGSQPGEFTLGKIKSFPGHTSSLVRVVSTNYNQHAMVFFKFVFQNREEFYITLYGRTKELTSELKENFIRFSKSLGLPENHIVFPVPIDQCIDG	0.07	0.13	2100	1.1	0.029	no binding (tested: 100 nM highest concentration of receptor)	1.72
lipocalin mutein-Fc fusion polypeptide of SEQ ID NO: 45 (Fc fusion, Biotinylated for the Fc-gamma receptor SPR; also called IgG4Fc-lipocalin mutein fusion polypeptide) QDSTSDLIPAPPLSKVPLQQNFQDNQFQGKWYVVGRAGNVGLREDKDPPKMWATIYELKEDKSYDVTNVRFARKKCTYSIGTFVPGSQPGEFTLGQIKSEPGGTANLVRVVSTNYNQHAMVFFKEVYQNREIFFIILYGRTKELTSELKENFIRFSKSLGLPENHIVFPVPIDQCIDGGGGGSGGGGSQDSTSDLIPAPPLSKVPLQQNFQDNQFHGKWYVVGQAGNIRLREDKDPIKMMATIYELKEDKSYDVTMVKFDDKKCMYDIWTFVPGSQPGEFTLGKIKSFPGHTSSLVRVVSTNYNQHAMVFFKFVFQNREEFYITLYGRTKELTSELKENFIRFSKSLGLPENHIVFPVPIDQCIDGGGGGSGGGGSGGGGS[letters of human IgG4 Fc with S228P F234A L235A (EU numbers) not shown]	0.12	0.21	1900	1	0.023	no binding (tested: 100 nM highest concentration of receptor)	1.7
